# In the RNAGym collection of RNA variant scans (doi:10.7554/elife.90254):
# The source gives no read counts; variants with many changes may rest on few reads.
# B1: LINE1-full (parent)
# chain: UACGUAGGUGGUUUUCCCCUGAUAGUGCUAAGGGGGCCUGGAAGUUUGGACUGGGCAGAGCUCAACACAGCGUGGCAAAGUGGCUGUGGCUAGACUGCCUCUCUGGAUUCCUCGUCACUCAGCAGGGCAUCUCUGAGAGAAAUGCC
# Variants of: B1
# Assay: self-cleavage, relative activity (ratio to wild type); higher = more cleavage; in vitro, sequencing; the parent is a self-cleaving ribozyme
row,Variant,self-cleavage
1,U62C G86A A140G,0.06
2,U62C G97U U130C,0.08
3,U62C G106A A121U U134G,0.03
4,U62C G126U U134C,0.06
5,U62C U73A A140G,0.01
6,U62C U73A A141G,0.01
7,U62C U73A C113U,0.05
8,U62C U73A G105A U112C A117C G135A,0.04
9,U62C U73A U85C,0
10,U62C U73A U87C,0
11,U62C U73C C90U U112A U115C,0.04
12,U62C U73C C90U U112C,0
13,U62C U73C U100C G114A,0.04
14,U62C U81A C128A,0.02
15,U62C U81C G89A U143C,0
16,U62C U85A U115C,0
17,U62C U85A U130C,0.04
18,U62C U85C A124G,0
19,U62C U85C U108C,0
20,U62C U87C U119C,0
21,U62C U91C A107G,0
22,U62C U96A A117G A121G,0
23,U62C U96A A136G,0.02
24,U62C U96A A140U,0.06

row,Variant,self-cleavage
1,U62C U96A U102C A107C,0
2,U62C U96A U108A,0.02
3,U62C U96C A117U,0.04
4,U62C U96C U104A,0.05
5,U62C U100A U119G U132C,0
6,U62C U100A U143G,0.05
7,U62C U100C A136G U143C,0
8,U62C U100C U102C,0
9,U62C U100C U115C U143C,0
10,U62C U102C A142G,0.03
11,U62C U102C U143C,0
12,U62C U109C U134G,0.11
13,U62C U112G A124G,0
14,U62C U119C G126A,0.06
15,U62C U130A A140G,0.03
16,U62G A121U A129G,0.08
17,C63A U100A A124G,0.08
18,C63G A64G A141G,0
19,C63U A65G A78G,0.06
20,C63U A69G A117G,0.11
21,C63U A69G U85A A141G,0.04
22,C63U A69G U115C G127A,0.06
23,C63U A77G A121G,0.61
24,C63U A92C U119C G127A,0.01

row,Variant,self-cleavage
1,C63U U73C U115C,0.71
2,C63U U81C U100A A129G,0.26
3,C63U U87A U102C,0.07
4,C63U U87A U119C,0.01
5,C63U U109A A117G U143C,0.13
6,A64C C76U U91C U102C,0.21
7,A64C G70U A141G,0.05
8,A64C U81C C103A A138G,0.21
9,A64C U104C A136G,0.58
10,A64C U108C U119C,0.57
11,A64G A65C A94U,0.1
12,A64G A65G A121U,0.53
13,A64G A65G A129G A140G,0
14,A64G A65G A136G,0
15,A64G A65G U81A U100C,0
16,A64G A67C U115C,0
17,A64G A67G U100C,0
18,A64G A67U A140U,0.03
19,A64G A69G U87A U91A A138U C145U,0
20,A64G A69G U102C A141G,0
21,A64G A69U A129G U134A A136U,0.11
22,A64G A77G A129G,0
23,A64G A77G U100A,0.24
24,A64G A77U A78G,0.52

row,Variant,self-cleavage
1,A64G A77U U100C A107G,0.18
2,A64G A78G U130C,0.43
3,A64G A78U U87A U102C,0.09
4,A64G A79U U87C,0
5,A64G A92G C120U,0.36
6,A64G A92U A121G A138G,1.38
7,A64G A94G A138G,0
8,A64G A94U U104C A136G A138G,0
9,A64G A117G A129G,0
10,A64G A124U A141G,0.27
11,A64G A124U A141U,0.14
12,A64G A129G U143C,0.62
13,A64G C71U A140G,0.13
14,A64G C71U G75C C123G,0.03
15,A64G C76U U130C,0.28
16,A64G C90U A94U U102C,0.04
17,A64G C95U C145G,0.07
18,A64G C113A G125A U132A,0.16
19,A64G G74A A142G,0.19
20,A64G G97A U102C,0.04
21,A64G G126A U143A,0.21
22,A64G U73A U85A,0.05
23,A64G U81A U85C,0
24,A64G U87G A92G,0.46

row,Variant,self-cleavage
1,A64G U91C U112C,0
2,A64G U96A A121U,0.06
3,A64G U100A A129G,0
4,A64G U100C C131A,0.37
5,A64G U102C A129G,0.18
6,A64G U104A A124G A138G,0.41
7,A64G U104A U108C,0.32
8,A64G U108C A124G,0
9,A64G U108C G114A G125U,0.27
10,A64G U108G A140G,0.26
11,A64G U109A C131U A140G,0.32
12,A64G U109C G126U,0.26
13,A64G U115A A138U,0.1
14,A64G U115A A141G A142G,0.11
15,A64G U115C A124G,0.29
16,A64G U130C A141G,0.43
17,A64U A65G A78G G105A U134C,0.01
18,A64U A65G U115A,0.02
19,A64U A65U A94G U130C,0
20,A64U A67G A94G,0
21,A64U A67G A136G,0.11
22,A64U A69C A78U U87C U96C U119A A142G,0
23,A64U A69G G86C U132A,0.01
24,A64U A77G A124U C146U,0.64

row,Variant,self-cleavage
1,A64U A77G A129G,1.1
2,A64U A79G U104A U112A,0.21
3,A64U A79U U85G,0.1
4,A64U A117G U132G,0.71
5,A64U A124G U132C,0.18
6,A64U A124G U143C,0.3
7,A64U C68G A129U,0.03
8,A64U C71U U112C,0.22
9,A64U C90U U109A,0.01
10,A64U G72U U81C,0.33
11,A64U G89C A94G A141G,0.02
12,A64U G114A U119A,0.38
13,A64U U73C U115A,0.48
14,A64U U85C A138G A141G,0.02
15,A64U U87A U96C,0.03
16,A64U U87A U96C C113A,0.04
17,A64U U96A A117G G144A,0.47
18,A64U U96C A136U G137U,0.04
19,A64U U96C U108C U132C,0
20,A64U U102C U115C,0
21,A64U U108C U130A,0.49
22,A64U U109A U115C,0.21
23,A64U U112C A140G,0.03
24,A64U U119C A129U A141G,0.57

row,Variant,self-cleavage
1,A65C A67C U115A,0
2,A65C U85A C128U,0.09
3,A65C U96C A107G A142G,0
4,A65G A67G U73C U112A C123U,0
5,A65G A67U A138G,0.06
6,A65G A69G C111A A124G,0
7,A65G A69G G106U G139U U143A,0
8,A65G A69G U104C,0
9,A65G A69G U134C,0.26
10,A65G A77U U112C,0.11
11,A65G A78G A138G,0.07
12,A65G A78U U102C A121G,0
13,A65G A92G U130A,0
14,A65G A94C A138G,0
15,A65G A94G U104C C128U A142U,0.08
16,A65G A94G U119A G125A A136U A141G,0
17,A65G A107G U115C U143A,0
18,A65G A117G U134A,0
19,A65G A124G A141G,0
20,A65G A129G A140U,0
21,A65G A140G C146A,0
22,A65G C66G A107G,0.05
23,A65G C66U A78G U96C A138G,0.01
